# From publication PMC4336329 (PLoS ONE, 2015)
# About 2,200 (0.71%) of roughly 310,000 compounds showed an effect of 50% or more. The effect is printed as a negative number. The list shows a part of the results.
# Molecular target: human ether-à-go-go-related gene (hERG) potassium channel (human, UniProt Q12809)
# Assay: primary screen, population patch clamp on CHO cells stably expressing hERG
# Chain of human ether-à-go-go-related gene (hERG) potassium channel (Q12809 whole entry, looked up): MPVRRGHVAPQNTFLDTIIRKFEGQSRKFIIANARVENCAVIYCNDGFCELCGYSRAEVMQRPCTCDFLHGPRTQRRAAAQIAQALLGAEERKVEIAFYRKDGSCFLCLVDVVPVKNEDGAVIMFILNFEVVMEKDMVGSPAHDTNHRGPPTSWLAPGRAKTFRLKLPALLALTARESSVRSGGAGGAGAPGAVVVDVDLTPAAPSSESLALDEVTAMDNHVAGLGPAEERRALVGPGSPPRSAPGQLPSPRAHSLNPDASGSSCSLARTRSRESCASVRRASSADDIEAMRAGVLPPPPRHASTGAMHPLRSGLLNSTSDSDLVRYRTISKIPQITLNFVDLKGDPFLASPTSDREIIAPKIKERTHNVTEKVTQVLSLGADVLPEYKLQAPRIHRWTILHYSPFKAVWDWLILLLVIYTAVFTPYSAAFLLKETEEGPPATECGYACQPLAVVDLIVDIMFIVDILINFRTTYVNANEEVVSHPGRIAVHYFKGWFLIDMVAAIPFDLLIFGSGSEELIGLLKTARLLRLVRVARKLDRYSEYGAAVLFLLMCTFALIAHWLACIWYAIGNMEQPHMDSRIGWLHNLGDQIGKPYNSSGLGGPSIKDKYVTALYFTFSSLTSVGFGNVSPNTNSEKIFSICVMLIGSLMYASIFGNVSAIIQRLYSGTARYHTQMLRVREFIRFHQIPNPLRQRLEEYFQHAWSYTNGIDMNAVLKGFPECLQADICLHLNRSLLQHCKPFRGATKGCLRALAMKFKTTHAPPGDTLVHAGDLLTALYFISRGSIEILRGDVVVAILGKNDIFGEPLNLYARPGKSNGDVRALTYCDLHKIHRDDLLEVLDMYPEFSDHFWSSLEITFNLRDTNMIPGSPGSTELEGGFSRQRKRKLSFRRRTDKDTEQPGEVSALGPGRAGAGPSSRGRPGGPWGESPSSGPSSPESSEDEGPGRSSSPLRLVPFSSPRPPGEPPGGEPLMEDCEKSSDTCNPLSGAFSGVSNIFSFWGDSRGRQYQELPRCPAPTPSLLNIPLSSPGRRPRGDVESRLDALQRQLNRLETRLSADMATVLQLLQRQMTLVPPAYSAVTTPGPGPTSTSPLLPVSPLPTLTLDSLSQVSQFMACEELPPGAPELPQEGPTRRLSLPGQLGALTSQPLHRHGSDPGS
row,Structure (SMILES),"hERG current change (%, negative = inhibition) at 1uM [%]"
1,COc1ccc(C(=O)N2CCC(n3nccc3NC(=O)C3CC3)CC2)cc1F,0.5
2,O=C(CSC1=NS(=O)(=O)c2cc(F)ccc2N1)Nc1ccccc1F,10.3
3,COc1ccccc1C(=O)NNC(=O)C12CC3CC(CC(C3)C1)C2,12.4
4,CC(C)Sc1nc2ccccc2n1CC(N)=O,11.5
5,N/C(=N/OC(=O)c1ccccc1Cl)c1nonc1N,7.04
6,Cn1cnnc1SCc1ccc(C(=O)N=Nc2c(O)n(Cc3ccc(Cl)cc3)c3ccccc23)cc1,4.26
7,Cc1ccc(S(=O)(=O)NC(C)C(=O)NC(C)c2cccs2)cc1 (stereo not drawn),15.2
8,COc1ccc(OCCCNCCc2ccccc2)cc1.O=C(O)C(=O)O,-20.9
9,COc1ccc(-c2nn(CCC#N)cc2C(=O)Nc2ccccc2Cl)cc1,10.5
10,Clc1nc(NCCN2CCOCC2)nc(NCc2ccccc2)n1,2.26
11,Cc1ccnc(N2C(=O)c3ccccc3C2Nc2ccccc2Cl)c1 (stereo not drawn),14.9
12,Cc1ccccc1NC(=S)c1ccc2ccccc2n1,18.2
13,Cc1ccccc1N1C(=O)C(Cl)=C(N2CCOCC2)C1=O,15.9
14,CCC(C)n1c(SCc2ccc([N+](=O)[O-])cc2)nc2ccsc2c1=O (stereo not drawn),13.2
15,Cc1ccccc1-c1nnc(SCC#N)o1,9.27
16,Clc1ccc(OCc2nc(-c3ccc(Br)o3)no2)cc1,-6.15
17,Cc1cc(-c2[nH]nc3c2C(c2ccsc2)C(C#N)=C(N)O3)c(C)s1 (stereo not drawn),8.05
18,COc1ccc(OC)c(CCNC(=O)CN2C(=O)COc3ccc(S(=O)(=O)N4CCOCC4)cc32)c1,9.3
19,COC(=O)C1=C(c2ccc(F)cc2F)C[C@@H]2CC[C@H]1N2C(=O)NC1CCCCC1,8.19
20,O=C(Cn1cnc2c(NC(=O)OCc3ccccc3)ncnc21)NCCN1CCOCC1,8.52
21,CCOc1ccc(Cn2nnc(C(=O)NCc3ccc(OC)cc3)c2N)cc1,12.1
22,C#CCOCCOCCOCCNc1nc(N2CCN(C(=O)[C@H](Cc3ccc(O)cc3)n3cc([C@@H](N)C(C)CC)nn3)CC2)nc(N2CCN(C(=O)[C@H](Cc3cc4ccccc4[nH]3)n3cc([C@@H](N)CC(C)C)nn3)CC2)n1.Cl (stereo partly drawn),13.8

row,Structure (SMILES),"hERG current change (%, negative = inhibition) at 1uM [%]"
1,O=C(CN1c2ccccc2S(=O)(=O)c2ccccc21)Nc1ccccc1F,11.3
2,CCN(CC(=O)Nc1ccc(NC(C)=O)cc1)C(=O)CCCc1nc2ccccc2c(=O)[nH]1,11.7
3,Cn1nccc1C(=O)N1CCc2c([nH]c3ccccc23)C1c1ccc(F)cc1 (stereo not drawn),20.7
4,O=C(COC(=O)Cc1ccc(F)cc1)NCCc1ccccc1,15.1
5,CC1(C(=O)[O-])CCCC2(C)c3cc(O)ccc3CCC12.[Ba+2] (stereo not drawn),7.38
6,COc1cccc(-n2ccnc2SCC(=O)N2CCCc3ccccc32)c1,10.7
7,COCCN1CCN(Cc2nc(C3(c4ccc(C)cc4)CCCC3)no2)CC1,-0.947
8,CC(C)(C)c1cc(C(=O)N/N=C/c2ccncc2)n[nH]1,3.24
9,Cc1c(C(=O)NCC2CCCO2)sc2nc(-c3ccc(F)cc3)cn12 (stereo not drawn),-4.15
10,O=C1CCC/C1=c1\s/c(=C\c2cccnc2)c(=O)n1-c1ccccc1,16.4
11,COCCNC(=O)C(NC(=O)C1CCCCC1)C(C)C (stereo not drawn),9.72
12,Cc1ccc(/C=C/C(=O)NC(=S)N2CCN(C)CC2)cc1,-0.681
13,COc1ccc(C(C)=O)cc1CSc1ccc(S(=O)(=O)N2CCCCC2)cn1,8.35
14,COc1ccc(C2=NOC(C(=O)NCc3ccccn3)C2)cc1OC (stereo not drawn),16.1
15,O=C(Nc1ccc(F)cc1)C1CC(=O)n2c(nc3ccccc32)N1 (stereo not drawn),4.14
16,CCc1ccc(S(=O)(=O)NCC2(N3CCOCC3)CCCCC2)cc1,-5.83
17,CC(C)C(=O)Nc1cccc(NC(=S)NC(=O)C(c2ccccc2)c2ccccc2)c1,2.01
18,Cc1ccc(NC(=O)c2oc3ccccc3c2NC(=O)c2ccc3c(c2)OCO3)cc1,-7.6
19,COc1ccc(-c2cc(C(=O)NCc3ccco3)no2)cc1OC,-0.258
20,O=C(Cc1ccccc1)Nc1ccc(C(=O)O)cc1,-8.03
21,Cc1c(-c2nc(-c3cccnc3)no2)cccc1[N+](=O)[O-],3.16
22,CCC(Oc1ccccc1)C(=O)OCC(=O)Nc1sccc1C(N)=O (stereo not drawn),11.5

row,Structure (SMILES),"hERG current change (%, negative = inhibition) at 1uM [%]"
1,COc1ccc(/C=C/C(=O)c2ccc(OC)cc2O)cc1,11.4
2,O=C(O)c1ccc(N/N=C2/CCCc3ccccc32)cc1.O=S(=O)(O)O,-1.94
3,COc1ccc(/C=N/NC(=O)Cn2c(Cc3ccc(OC)c(OC)c3)nc3ccccc32)cc1,7.62
4,CCOC(=O)N1CCC(N2C(=O)c3ccccc3C2Nc2c(C)cccc2C)CC1 (stereo not drawn),-57.6
5,O=C(C1CCC(=O)N1Cc1ccccc1Cl)N1CCC2(CC1)OCCO2 (stereo not drawn),-4.5
6,C=CCn1c(O)c(C(C)=NCC2CCCO2)c(=O)[nH]c1=O (stereo not drawn),11.9
7,O=C(NC(c1ccccc1)c1ccccc1)C1(c2cccs2)CCOCC1,16.5
8,O=C(Nc1ccc2c(c1)OCO2)C1CCN(Cc2cnn(-c3ccccc3)c2-n2cccc2)CC1,-13.1
9,Cc1ccc(COc2cccc3c2CCN(Cc2ccc(F)cc2)C3=O)cc1,10.9
10,CN(CC(=O)OCC(N)=O)S(=O)(=O)c1ccc(Cl)cc1,16.4
11,COc1ccccc1Nc1ncnc2ccc(C)cc12,12.7
12,CCn1c(=O)c2c(n3c(=S)[nH]nc13)-c1ccccc1CC21CCCCC1,19.1
13,Oc1c(Br)cc(Br)cc1C=NCc1ccc(F)cc1,11.8
14,CN(C(=O)c1ccccc1Cl)c1ccccc1C(=O)NCCc1ccccc1,13.1
15,COc1cccc(OC)c1C(=O)OCCCOC(=O)c1c(OC)cccc1OC,16.5
16,COc1cc(C2NCCc3c2[nH]c2ccccc32)ccc1OC(C)C.Cl (stereo not drawn),19.1
17,O=C(/C=C/c1cn(CC(O)CN2CCCCC2)c2ccccc12)c1cccs1 (stereo not drawn),7.06
18,COCCNC(=O)C1CCCN(S(=O)(=O)c2cccc3nsnc23)C1 (stereo not drawn),23.6
19,O=C(COc1cccc2ccccc12)N/N=C/C=C/c1ccccc1,3.49
20,COc1ccc(NC(=O)CSc2ccccc2)c(OC)c1,7.77
21,Cc1n[nH]c(=O)c2c(NC(=O)COC(=O)Cc3ccc(Cl)cc3Cl)oc(C)c12,2.98
22,COc1ccc(NC(=O)CSc2nnc(C)n2Cc2ccccc2)cc1,9.85

row,Structure (SMILES),"hERG current change (%, negative = inhibition) at 1uM [%]"
1,Cn1nc(-c2ccc(C(=O)O)cc2)c2ccccc2c1=O,11.6
2,Cc1ccc(NCCC(=O)c2ccccc2)cc1Cl,2.18
3,CCN(c1ccccc1)S(=O)(=O)c1ccc(OC)c(NC(=O)Cn2cnc3c2c(=O)n(C)c(=O)n3C)c1,-6.5
4,CCNC(=O)NC(=O)C(C)OC(=O)c1cccn1C (stereo not drawn),10.7
5,CCOC(=O)c1c(NC(=S)NCc2ccccc2)sc2c1CCN(C(=O)OCC)C2,9.09
6,O=c1[nH]c(=O)n(CCC2=CCCCC2)c(O)c1C=NC1CCN(Cc2ccccc2)CC1,-26.4
7,CN(NC(=O)COc1ccccc1)c1ccccc1,9.41
8,CCN1CCC(NCC2CCCCC2)CC1,12.7
9,O=C(O)C1CCC(=O)N1C1c2ccccc2Oc2ccccc21 (stereo not drawn),7.76
10,C/C(=N\NC(=O)c1cc(-c2ccc(Br)s2)[nH]n1)c1ccncc1,22.2
11,Cc1ccc(S(N)(=O)=O)cc1NC(=O)/C=C/c1ccc2c(c1)OCO2,4.18
12,CCOC(=O)c1cnc2ccc(Cl)cc2c1Nc1ccc(S(=O)(=O)Nc2ncccn2)cc1,6.94
13,CCC(C)[C@H](NC(=O)[C@@H]1Cc2ccccc2CN1)C(=O)Nc1ccc2c(c1)OCO2 (stereo partly drawn),10
14,COc1cccc(C(C(=O)NC(C)(C)C)N(Cc2ccco2)C(=O)CCC(=O)Nc2cc(C)on2)c1OC (stereo not drawn),13
15,COC(=O)c1ccc(CN2C(=O)NC3(CCCCC3C)C2=O)o1 (stereo not drawn),4.3
16,CCOc1ccc(C(=O)NCC(=O)N2CC=C(c3ccccc3)CC2)cc1OCC,-30.3
17,CN(C)c1nc(N)nc(Cn2ccnc2)n1,-6.33
18,O=C(NCCN1CCOCC1)Nc1ccc(Cl)cc1Cl,0.106
19,CN(C)C(=O)CSc1nc(-c2ccccc2)c(-c2ccccc2)o1,11.1
20,COc1ccccc1CCc1nnc(CCC(=O)NC(C)Cc2cccc(C)n2)o1 (stereo not drawn),11.2
21,CCC(C)C(NC(N)=O)C(=O)Nc1ccc(S(=O)(=O)Nc2ccc(OC)cc2)cc1 (stereo not drawn),9.1
